Assay [1] has as its target T1, human ROR1-Fc protein (Sino Biological, 13968-H02H1) (human, UniProt Q01973 in part).
T1 construct: Bought protein; also called human ROR1 protein (13968-H02H1, Fc tag)
Nature of the assay: DACE ELISA (ROR1-Fc coated, 4-1BB-His detection); 3 days in human serum at 37°C. The method, then: (§1) A 96-well microtiter plate (NUNC, 446612) was coated overnight at 4° C. with human ROR1-Fc protein (Sinobio, 13968-H02H1) at 100 ng/well in PBS. The plate was then incubated with 1% BSA buffer (1×PBS, 1% (v/v) BSA) at 200 μl/well at 37° C. for 2 hours to block non-specific binding. Thereafter, the blocking solution was discarded and fourfold dilutions of each bispecific antibody test material (starting from 100 nM) were added to the wells. The plate was incubated at 37° C. for 2 hours and then washed with PBS-T (1×PBS/0.05% (v/v) Tween-20). Subsequently, human 4-1BB-His protein (Sinobio, 10041-H08H) dissolved in 1% BSA buffer was added at 100 ng/well and incubated at 37° C. for 1 hour. After washing with PBS-T, the plate was incubated with anti-His HRP (Roche, Cat: 11965085001) at 37° C. for 1 hour. After washing, color development was performed with TMB (tetramethylbenzidine, Sigma, T0440) and the color development was stopped with 0.5M sulfuric acid (Samchun Chemicals, S1410), and the absorbance (OD) at 450-650 nm was read using a spectrophotometer. Four-parameter logistic curve analysis was performed using GraphPad software.

The target in assay [2] is T1, human ROR1-Fc protein (Sino Biological, …). The assay is described as follows: DACE ELISA (ROR1-Fc coated, 4-1BB-His detection); 14 days in monkey serum at 37°C. The procedure:
as §1
For orientation: An ELISA detects its analyte on a solid surface through an enzyme-linked reagent.

For assay [3] the target is unchanged. Nature of the assay: SPR Biacore T200, ROR1-Fc amine-coupled on CM5, antibody as analyte, bivalent analyte model (Kd1/Ka1). The procedure: The binding affinity of both BA6M11(WT)x1A10M12 and BA6M11 (NA)x1A10M12 clones, which are anti-ROR1/anti-4-1BB bispecific antibodies comprising BA6M11 clone, was assessed using surface plasmon resonance (SPR). The antigens used for this assessment were human ROR1 protein (13968-H02H1, Fc tag) from Sino Biological and human 4-1BB protein (9220-4B-100, his tag) from R&D Systems. The measurements were conducted on a Biacore T200 instrument (Cytiva).
The CM5 chip (Cytiva, BR100530) was coated with a 5 μg/mL human ROR1 protein dilution in Acetate 4.0 (Cytiva, BR100349) using the amine coupling method (Cytiva, BR100050) to achieve a surface density of about 80 RU. […] These diluted antibody samples were then flowed over the human ROR1 protein-immobilized CM5 chip for approximately 60 seconds to conjugate the sample to the antigen, followed by flowing HBS-EP buffer (1×) over the sample-antigen complex for 180 seconds to dissociate the sample from the antigen. […] Binding affinity was analyzed using the bivalent analyte model to derive the primary association rate constant (Ka1) and primary dissociation rate constant (Kd1). The equilibrium dissociation constant (KD) was calculated by dividing the primary dissociation rate constant by the primary association rate constant, and this value was used to represent the final binding affinity.
On the technique in general: Surface plasmon resonance follows binding to a sensor surface in real time, without labels.

Assay [4] shares this target. Nature of the assay: dual-antigen capture ELISA (DACE): plate coated with human ROR1-Fc, antibody titrated, then human 4-1BB-His and anti-His HRP, OD450. The procedure:
Briefly, 96-well microtiter plates (NUNC, 446612) were coated overnight at 4° C. with human ROR1-Fc protein (Sinobio, 13968-H02H1) in PBS at 10 ng/well, then the plates were incubated with 1% BSA buffer (1×PBS, 1% (v/v) BSA) at 200 μl/well for 2 hours at 37° C. to prevent nonspecific binding. After blocking nonspecific binding, the wells were washed, and serial dilutions of the bispecific antibody test materials (starting at 100 nM) were added to each well. After incubation for 2 hours at 37° C., the plates were washed with PBS-T (1×PBS/0.05% (v/v) Tween-20). Then, human 4-1BB-His protein (Sinobio, 10041-H08H) dissolved in 1% (v/v) BSA was added to each well at 100 ng/well and incubated for 1 hour at 37° C. After washing the plates with PBS-T, anti-His HRP (Roche, Cat: 11965085001) was added and incubated for 1 hour at 37° C. After washing, color development was conducted TMB (tetramethylbenzidine, Sigma, T0440) and the reaction was stopped with 0.5M sulfuric acid (Samchun Chemicals, S1410), followed by reading absorbance (OD) at 450-650 nm in a spectrophotometer. Four-parameter logistic curve analysis was performed using GraphPad software.

Data on 1 molecule can be found in US20260015418A1 (ABL BIO, published 2026).

T1 sequence (Q01973 30-403 limits assumed): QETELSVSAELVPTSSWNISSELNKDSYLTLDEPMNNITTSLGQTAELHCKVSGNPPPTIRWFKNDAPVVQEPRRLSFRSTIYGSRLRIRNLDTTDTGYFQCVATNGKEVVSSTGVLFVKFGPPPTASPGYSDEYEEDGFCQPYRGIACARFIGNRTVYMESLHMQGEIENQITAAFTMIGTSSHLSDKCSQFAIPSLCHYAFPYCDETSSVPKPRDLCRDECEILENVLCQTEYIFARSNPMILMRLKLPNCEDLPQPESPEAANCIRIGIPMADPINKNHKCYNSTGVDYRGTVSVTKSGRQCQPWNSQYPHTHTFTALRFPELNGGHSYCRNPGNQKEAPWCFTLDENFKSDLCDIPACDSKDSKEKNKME

B1: BA6M11(NA)x1A10M12 anti-ROR1/anti-4-1BB bispecific antibody (bispecific antibody, human IgG1, lambda)
heavy: EVQLLESGGGLVQPGGSLRLSCAASGFTFSNYDMSWVRQAPGKGLEWVSAIYHSGSSKYYADSVKGRFTISRDNSKNTLYLQMNSLRAEDTAVYYCARGGSGAWDTGFDYWGQGTLVTVSSASTKGPSVFPLAPSSKSTSGGTAALGCLVKDYFPEPVTVSWNSGALTSGVHTFPAVLQSSGLYSLSSVVTVPSSSLGTQTYICNVNHKPSNTKVDKKV[human IgG1 Fc with changes not shown]GSGSGSGSGSGSGSGSGSQSVLTQPPSASGTPGQRVTISCSGSSSNIGNNYVTWYQQLPGTAPKLLIYADSHRPSGVPDRFSGSKSGTSASLAISGLRSEDEADYYCATWDYSLSGYVFGCGTKLTVLGGGGSGGGGSGGGGSGGGGSEVQLLESGGGLVQPGGSLRLSCAASGFTFSSYDMSWVRQAPGKCLEWVSWISYSGGSIYYADSVKGRFTISRDNSKNTLYLQMNSLRAEDTAVYYCARDAQRNSMREFDYWGQGTLVTVSS
light: QSVLTQPPSASGTPGQRVTISCSGSSSNIGSNDVSWYQQLPGTAPKLLIYYENNRPSGVPDRFSGSKSGTSASLAISGLRSEDEADYYCGAWDDSLSGYVFGGGTKLTVLGQPKAAPSVTLFPPSSEELQANKATLVCLISDFYPGAVTVAWKADSSPVKAGVETTTPSKQSNNKYAASSYLSLTPEQWKSHRSYSCQVTHEGSTVEKTVAPAECS
notes: As BA6M11(WT)x1A10M12 but with the N297A (NA) mutation in the Fc; also called BA6M11(NA) × 1A10M12
A word on the EC50: it is the concentration needed to bring the measured effect to its halfway point. Broadly, the EC50 (read off the curve) is the concentration needed to bring the measured effect to its halfway point. With B1, the results for the EC50 in assay [1] and in assay [2] were 0.22 nM and 0.273 nM, respectively. The molecule further returned a Kd in assay [3] of 6.65 nM. Also, the “EC50 (read off the curve)” value in assay [4] is ~0.4 nM.
